Measured values: patent US11000038B2, “Pyridone compounds and agricultural and horticultural fungicides containing the same as active ingredients” (priority 2017, dated 2021)
Like-named read-outs stand apart in the source and are kept apart here.

What was measured:
[1] = test system: rice blast fungi (Magnaporthe grisea); format: in vivo; details: for Test A control value: rice blast; for Test A control value class (rice blast): control value=100{1-(n/3)}
[2] = test system: tomato late blight fungi (Phytophthora infestans); format: in vivo; details: for Test F control value: tomato late blight; for Test F control value class (tomato late blight): control value=100{1-(n/3)}
[3] = test system: cucumber anthracnose fungi (Colletotrichum orbiculare); assay: Test Example H: cucumber anthracnose, spray treatment of cucumber plants; details: for Test H control value: cucumber anthracnose, 6 to 10 days after inoculation; for Test H control value class (cucumber anthracnose): 2.5 ml/pot, cucumber Sagami Hanjiro, 6 to 10 days from inoculation
[4] = spray treatment of tomato plants

| Compound | Test A control value ([1]; spray treatment) | Test F control value ([2]; spray treatment) | Test H control value ([3]; 250 ppm spray) | Test A control value ([1]; spray treatment of rice plants) | Test F control value [2, 4] | Test H control value ([3]; 250 ppm spray (2.5 ml/pot)) | also measured |
| --- | --- | --- | --- | --- | --- | --- | --- |
| Cc1cc(F)ccc1-c1c(Br)c(=O)c(Br)cn1-c1ccccc1 [Compound 584] | H (H shows the control value of more than 50%) | L (L shows the control value of 50% or less) | H (H shows the control value of more than 50%) |  |  |  |  |
| COC(=O)c1ccc(-c2c(C)c(=O)c(C)cn2-c2ccccc2C)cc1 [Compound 243] |  |  |  | L (L shows the control value of 50% or less) | L (L shows the control value of 50% or less) | L (L shows the control value of 50% or less) |  |
| Cc1cccc(C)c1-n1cc(Br)c(=O)c(Br)c1-c1ccc(F)cc1 [Compound 343] |  |  |  | L (L shows the control value of 50% or less) | L (L shows the control value of 50% or less) | H (H shows the control value of more than 50%) |  |
| O=c1c(Br)cn(-c2ccccc2)c(-c2ccccc2F)c1Cl [Compound 467] | L (L shows the control value of 50% or less) | L (L shows the control value of 50% or less) | L (L shows the control value of 50% or less) |  |  |  |  |
| Cc1ccc(F)cc1-n1cc(Cl)c(=O)c(Br)c1-c1c(F)cccc1F [Compound 449] | L (L shows the control value of 50% or less) | L (L shows the control value of 50% or less) | L (L shows the control value of 50% or less) |  |  |  |  |
| O=c1c(Cl)cn(-c2ccccc2Br)c(-c2c(F)cccc2F)c1Br [Compound 93] |  |  |  |  |  |  | Test A control value class (rice blast) ([1]; spray treatment of rice plants): H (H shows the control value of more than 50%); Test F control value class (tomato late blight) [2, 4]: L (L shows the control value of 50% or less); Test H control value class (cucumber anthracnose) ([3]; 250 ppm spray): H (H shows the control value of more than 50%) |
| Cc1cn(-c2ccccc2)c(-c2cc(F)ccc2F)c(C)c1=O [Compound 614] | H (H shows the control value of more than 50%) | L (L shows the control value of 50% or less) | H (H shows the control value of more than 50%) |  |  |  |  |
| CCc1ccccc1-n1cc(Cl)c(=O)c(Cl)c1-c1c(F)cc(F)cc1F [Compound 339] |  |  |  | H (H shows the control value of more than 50%) | L (L shows the control value of 50% or less) | H (H shows the control value of more than 50%) |  |
| Cc1cc(F)ccc1-n1cc(Br)c(=O)c(Cl)c1-c1c(F)cc(F)cc1F [Compound 274] |  |  |  | H (H shows the control value of more than 50%) | L (L shows the control value of 50% or less) | H (H shows the control value of more than 50%) |  |
| COc1cc(F)c(-c2c(Br)c(=O)c(Cl)cn2C2CCCCC2C)c(F)c1 (stereo not drawn) [Compound 170] |  |  |  |  |  |  | Test A control value class (rice blast) ([1]; spray treatment of rice plants): H (H shows the control value of more than 50%); Test F control value class (tomato late blight) [2, 4]: L (L shows the control value of 50% or less); Test H control value class (cucumber anthracnose) ([3]; 250 ppm spray): L (L shows the control value of 50% or less) |
| Cc1cc(F)ccc1-c1c(Cl)c(=O)c(Br)cn1-c1ccccc1 [Compound 583] | L (L shows the control value of 50% or less) | L (L shows the control value of 50% or less) | H (H shows the control value of more than 50%) |  |  |  |  |
| Cc1cc(F)ccc1-n1cc(Br)c(=O)c(Br)c1-c1c(F)cc(F)cc1F [Compound 273] |  |  |  | H (H shows the control value of more than 50%) | L (L shows the control value of 50% or less) | H (H shows the control value of more than 50%) |  |
| CCc1cn(-c2ccccc2C)c(-c2c(F)cc(F)cc2F)c(CC)c1=O [Compound 317] |  |  |  | H (H shows the control value of more than 50%) | L (L shows the control value of 50% or less) | H (H shows the control value of more than 50%) |  |
| CCc1c(-c2c(F)cccc2F)n(-c2cc(F)ccc2C)cc(Br)c1=O [Compound 541] | L (L shows the control value of 50% or less) | L (L shows the control value of 50% or less) | L (L shows the control value of 50% or less) |  |  |  |  |
| CCc1c(-c2ccc(F)cc2F)n(-c2ccccc2)cc(C)c1=O [Compound 598] | H (H shows the control value of more than 50%) | L (L shows the control value of 50% or less) | H (H shows the control value of more than 50%) |  |  |  |  |
| CCCn1cc(Cl)c(=O)c(Cl)c1-c1c(F)cc(F)cc1F [Compound 6] |  |  |  |  |  |  | Test A control value class (rice blast) ([1]; spray treatment of rice plants): H (H shows the control value of more than 50%); Test F control value class (tomato late blight) [2, 4]: L (L shows the control value of 50% or less); Test H control value class (cucumber anthracnose) ([3]; 250 ppm spray): L (L shows the control value of 50% or less) |
| O=c1c(Br)cn(-c2cccc(Cl)c2)c(-c2c(F)cc(F)cc2F)c1Cl [Compound 139] |  |  |  |  |  |  | Test A control value class (rice blast) ([1]; spray treatment of rice plants): H (H shows the control value of more than 50%); Test F control value class (tomato late blight) [2, 4]: L (L shows the control value of 50% or less); Test H control value class (cucumber anthracnose) ([3]; 250 ppm spray): H (H shows the control value of more than 50%) |
| CC(C)c1ccccc1-n1cc(Br)c(=O)c(Br)c1-c1c(F)cc(F)cc1F [Compound 394] | H (H shows the control value of more than 50%) | L (L shows the control value of 50% or less) | H (H shows the control value of more than 50%) |  |  |  |  |
| Cc1ccccc1-n1cc(I)c(=O)c(C)c1-c1c(F)cc(F)cc1F [Compound 261] |  |  |  | H (H shows the control value of more than 50%) | L (L shows the control value of 50% or less) | H (H shows the control value of more than 50%) |  |
| Cc1ccc(-n2cc(Cl)c(=O)c(Br)c2-c2c(F)cc(F)cc2F)c(C)c1 [Compound 258] |  |  |  | H (H shows the control value of more than 50%) | L (L shows the control value of 50% or less) | H (H shows the control value of more than 50%) |  |
| COc1cc(F)c(-c2c(C)c(=O)c(Br)cn2-c2ccccc2C)c(F)c1 [Compound 266] |  |  |  | H (H shows the control value of more than 50%) | L (L shows the control value of 50% or less) | H (H shows the control value of more than 50%) |  |
| Cc1cccc(F)c1-n1cc(Cl)c(=O)c(Br)c1-c1c(F)cc(F)cc1F [Compound 290] |  |  |  | L (L shows the control value of 50% or less) | L (L shows the control value of 50% or less) | H (H shows the control value of more than 50%) |  |
| Cc1c(Cl)cccc1-n1cc(Br)c(=O)c(Br)c1-c1c(F)cc(F)cc1F [Compound 323] |  |  |  | H (H shows the control value of more than 50%) | H (H shows the control value of more than 50%) | H (H shows the control value of more than 50%) |  |
| COc1ccc(-c2c(C)c(=O)c(C)cn2-c2cc(OC)ccc2C)cc1 [Compound 606] | H (H shows the control value of more than 50%) | L (L shows the control value of 50% or less) | H (H shows the control value of more than 50%) |  |  |  |  |
